# Data from publication PMC10182836 (Molecular cell, 2023).
# B1: Cbf1 (full-length Cbf1 used for cryo-EM, Cbf1([…])) (natural protein)
# chain: not shown
# Target: the molecule itself
# Test: cryo-EM structure
protein,measurement,value
B1,binding result,binds
